# Measurements published in paper PMC6226504, “Ca^2+ efflux via plasma membrane Ca^2+-ATPase mediates chemotaxis in ascidian sperm” (Scientific Reports, 2018).
# Target: plasma membrane Ca2+-ATPase (PMCA), splice variant Atp2b-var.b (Ciona intestinalis, UniProt A0A3G9HPC9)
smiles,measurement,value
C[C@@H](CCC[C@@H](C)[C@H]1CC[C@H]2[C@@H]3[C@H](O)C[C@H]4[C@@H](O)[C@H](OS(=O)(=O)O)CC[C@]4(C)[C@H]3CC[C@]12C)COS(=O)(=O)O [SAAF],Kd,240 ± 50 nM
